According to US6544989B2, “Benzazoles: benzoxazole, benzthiazole and benzimidazole derivatives” (Syngenta Limited, priority 1998, dated 2003):

Columns and labels:
Settings in all cases: 500 ppm by weight; mortality assessed usually between three and five days after treatment
Heliothis virescens = tested on: Heliothis virescens
Musca domestica = tested on: Musca domestica
Tetranychus urticae = tested on: Tetranychus urticae
Myzus persicae = test: Pesticidal test, Myzus persicae mortality
Spodoptera exigua = test: Pesticidal test, Spodoptera exigua mortality

Compound | HELIVI = Heliothis virescens, grading of mortality (score) (Heliothis virescens) | MUSCDO AK = Musca domestica (kill), grading of mortality (score) (Musca domestica) | TETRUR = Tetranychus urticae, grading of mortality (score) (Tetranychus urticae) | MYZUPE = Myzus persicae, grading of mortality (score) (Myzus persicae) | LAPHEG = Spodoptera exigua, grading of mortality (score) (Spodoptera exigua)
CC=C(C)c1nc2cc(CC(=O)Nc3snc(C)c3Cl)ccc2o1 [47(A3)] | 0 (0 indicates less than 40% mortality) | 0 (0 indicates less than 40% mortality) | 0 (0 indicates less than 40% mortality) | 9 (9 indicates 80-100% mortality) | 0 (0 indicates less than 40% mortality)
Cc1nsc(NC(=O)Cc2ccc3oc(CF)nc3c2)c1Cl [73(A3)] | 5 (5 indicates 40-79% mortality) | 0 (0 indicates less than 40% mortality) | 0 (0 indicates less than 40% mortality) | 9 (9 indicates 80-100% mortality) | 0 (0 indicates less than 40% mortality)
Cc1nsc(NC(=O)Cc2ccc3oc(C(C)(C)CCl)nc3c2)c1Cl [98(A3)] | 5 (5 indicates 40-79% mortality) | 0 (0 indicates less than 40% mortality) | 9 (9 indicates 80-100% mortality) | 9 (9 indicates 80-100% mortality) | 5 (5 indicates 40-79% mortality)
Cc1nsc(NC(=O)Cc2ccc3oc(COc4ccccc4)nc3c2)c1Cl [140(A3)] | 0 (0 indicates less than 40% mortality) | 0 (0 indicates less than 40% mortality) | 0 (0 indicates less than 40% mortality) | 0 (0 indicates less than 40% mortality) | 0 (0 indicates less than 40% mortality)
CSCCc1nc2cc(CC(=O)Nc3snc(C)c3Cl)ccc2o1 [172(A3)] | 5 (5 indicates 40-79% mortality) | 9 (9 indicates 80-100% mortality) | 9 (9 indicates 80-100% mortality) | 9 (9 indicates 80-100% mortality) | 5 (5 indicates 40-79% mortality)
Cc1nsc(NC(=O)Cc2ccc3oc(Cl)nc3c2)c1Cl [174(A3)] | 0 (0 indicates less than 40% mortality) | 0 (0 indicates less than 40% mortality) | 0 (0 indicates less than 40% mortality) | 5 (5 indicates 40-79% mortality) | 0 (0 indicates less than 40% mortality)
CCN(C)c1nc2cc(CC(=O)Nc3snc(C)c3Cl)ccc2o1 [180(A3)] | 0 (0 indicates less than 40% mortality) | 0 (0 indicates less than 40% mortality) | 0 (0 indicates less than 40% mortality) | 0 (0 indicates less than 40% mortality) | 5 (5 indicates 40-79% mortality)
Cc1nsc(NC(=O)Cc2ccc3oc(NC(C)(C)C)nc3c2)c1Cl [183(A3)] | 5 (5 indicates 40-79% mortality) | 5 (5 indicates 40-79% mortality) | 9 (9 indicates 80-100% mortality) | 0 (0 indicates less than 40% mortality) | 5 (5 indicates 40-79% mortality)
Cc1nsc(NC(=O)Cc2ccc3oc(N4CCOCC4)nc3c2)c1Cl [191(A3)] | 5 (5 indicates 40-79% mortality) | 5 (5 indicates 40-79% mortality) | 9 (9 indicates 80-100% mortality) | 0 (0 indicates less than 40% mortality) | 0 (0 indicates less than 40% mortality)
COc1nc2cc(CC(=O)Nc3snc(C)c3Cl)ccc2o1 [203(A3)] | 0 (0 indicates less than 40% mortality) | 9 (9 indicates 80-100% mortality) | 0 (0 indicates less than 40% mortality) | 9 (9 indicates 80-100% mortality) | 0 (0 indicates less than 40% mortality)
CCOc1nc2cc(CC(=O)Nc3snc(C)c3Cl)ccc2o1 [204(A3)] | 5 (5 indicates 40-79% mortality) | 9 (9 indicates 80-100% mortality) | 0 (0 indicates less than 40% mortality) | 9 (9 indicates 80-100% mortality) | 9 (9 indicates 80-100% mortality)
CSc1nc2cc(CC(=O)Nc3snc(C)c3Cl)ccc2o1 [220(A3)] | 0 (0 indicates less than 40% mortality) | 0 (0 indicates less than 40% mortality) | 0 (0 indicates less than 40% mortality) | 5 (5 indicates 40-79% mortality) | 0 (0 indicates less than 40% mortality)
CCSc1nc2cc(CC(=O)Nc3snc(C)c3Cl)ccc2o1 [221(A3)] | 0 (0 indicates less than 40% mortality) | 5 (5 indicates 40-79% mortality) | 0 (0 indicates less than 40% mortality) | 9 (9 indicates 80-100% mortality) | 0 (0 indicates less than 40% mortality)
Cc1nsc(NC(=O)Cc2ccc3oc(SC(C)C)nc3c2)c1Cl [223(A3)] | 5 (5 indicates 40-79% mortality) | 0 (0 indicates less than 40% mortality) | 0 (0 indicates less than 40% mortality) | 9 (9 indicates 80-100% mortality) | 0 (0 indicates less than 40% mortality)
Cc1nsc(NC(=O)Cc2ccc3oc(SC(C)(C)C)nc3c2)c1Cl [224(A3)] | 5 (5 indicates 40-79% mortality) | 0 (0 indicates less than 40% mortality) | 9 (9 indicates 80-100% mortality) | 9 (9 indicates 80-100% mortality) | 0 (0 indicates less than 40% mortality)
Cc1nsc(NC(=O)Cc2ccc3oc(SCC#N)nc3c2)c1Cl [228(A3)] | 0 (0 indicates less than 40% mortality) | 0 (0 indicates less than 40% mortality) | 0 (0 indicates less than 40% mortality) | 0 (0 indicates less than 40% mortality) | 0 (0 indicates less than 40% mortality)
COC(=O)CSc1nc2cc(CC(=O)Nc3snc(C)c3Cl)ccc2o1 [229(A3)] | 0 (0 indicates less than 40% mortality) | 0 (0 indicates less than 40% mortality) | 0 (0 indicates less than 40% mortality) | 0 (0 indicates less than 40% mortality) | 0 (0 indicates less than 40% mortality)
Cc1nsc(NC(=O)Cc2ccc3oc(CCc4ccccc4)nc3c2)c1Cl [247(A3)] | 0 (0 indicates less than 40% mortality) | 0 (0 indicates less than 40% mortality) | 0 (0 indicates less than 40% mortality) | 9 (9 indicates 80-100% mortality) | 0 (0 indicates less than 40% mortality)
Cc1nsc(NC(=O)Cc2ccc3oc(-c4ccccc4)nc3c2)c1Cl [248(A3)] | 5 (5 indicates 40-79% mortality) | 0 (0 indicates less than 40% mortality) | 0 (0 indicates less than 40% mortality) | 0 (0 indicates less than 40% mortality) | 0 (0 indicates less than 40% mortality)
Cc1nsc(NC(=O)Cc2ccc3oc(-c4ccc(C(C)(C)C)cc4)nc3c2)c1Cl [252(A3)] | 0 (0 indicates less than 40% mortality) | 0 (0 indicates less than 40% mortality) | 0 (0 indicates less than 40% mortality) | 0 (0 indicates less than 40% mortality) | 0 (0 indicates less than 40% mortality)
Cc1nsc(NC(=O)Cc2ccc3oc(-c4ccc(Cl)cc4Cl)nc3c2)c1Cl [257(A3)] | 5 (5 indicates 40-79% mortality) | 5 (5 indicates 40-79% mortality) | 9 (9 indicates 80-100% mortality) | 0 (0 indicates less than 40% mortality) | 0 (0 indicates less than 40% mortality)
